# The whole screen tested about 360,000 compounds, of which about 2,600 (0.72%) were called active. The inconclusive results got no clear call from the source; some entries with a clear call stand among them for comparison. Calls follow the shape of the dose curve; as a rule, active = well fitted inhibition curve with a large enough effect; inconclusive = small, poorly fitted or top-dose-only effect; inactive = no such curve, though single readings can be large or run the other way. Where the call is inconclusive, the potency comes from a doubtful curve fit.
# Experiment: Primary qHTS for Inhibitors of ATXN expression; also: nearly all actives have a fitted effect of over 55% in size
# Details: HEK-293 ATXN2-luciferase reporter, luminescence, 24 h; activity change, negative = inhibition: at 57 µM (top of the series)
# Method in brief: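 qHTS (up to 57 uM final) was run with 24 h compound exposure of reporter cells at 37 °C. Each well was multiplexed: SteadyGlo luminescence measured ATXN2-luciferase expression after a fluorogenic Gly-Phe-AFC viability readout (25 uM final).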
# % is scaled to controls: 0 for no effect and ±100 for the full control effect; potency is read from the fitted curve at half-maximal effect; tags tell the direction and shape of the fitted curve.
SMILES,Potency,"activity change, negative = inhibition"
O=C(Oc1ccc2c(c1)OCO2)c1cc2c(s1)CCC2,"inconclusive: 17.8 µM [inhibitor, single point]",
COc1ccc(CN2CC(=O)N(c3cccc(Cl)c3)C2=S)cc1OC,,inactive: -26.8%
Cc1cnc(Nc2ccc(N3CCN(C)CC3)cc2)nc1Nc1cccc(S(=O)(=O)NC(C)(C)C)c1,"inconclusive: 38.5 µM [inhibitor, single point]",
C=CCNc1nc(NCc2ccc(N(C)C)cc2)c2sc(-c3ccccc3)cc2n1,,inactive: -7.9%
O=C(Cc1ccc(F)cc1)NCCc1csc(-c2ccc(C(F)(F)F)cc2)n1,"inconclusive: 15.8 µM [inhibitor, partial curve, poor fit]",
Cc1ccc(-n2c(C)cc(C3N=C(N)Nc4nc5ccccc5n43)c2C)c(C)c1 (stereo unspecified),"inconclusive: 39.8 µM [inhibitor, single point]",
c1cc2c(cc1-c1cnc3n1CCC3)OCCO2,"inconclusive: 11.2 µM [inhibitor, partial curve]",
COc1ccc(/C=N/Nc2nnc(C)n2N)cc1OC(C)=O,,inactive: -2.68%
CC(C)C[C@H](NC(=O)c1nc[nH]c1C(=O)N[C@@H](CC(C)C)C(=O)OC(C)(C)C)C(=O)OC(C)(C)C,"inconclusive: 31.6 µM [inhibitor, single point]",
C[C@H](CO)N1C[C@H](C)[C@@H](CN(C)CC2CCOCC2)Oc2cc(C#Cc3ccccc3F)ccc2S1(=O)=O,"inconclusive: 22.4 µM [inhibitor, partial curve]",
COC(=O)Cc1ccc(NC(=S)NCc2ccc(S(N)(=O)=O)cc2)cc1,,inactive: -19.5%
CCc1ccc2c(c1)C1(C(=O)N2)N2CCCC2C(C(=O)c2ccc3ccccc3c2)C12C(=O)Nc1ccccc12 (stereo unspecified),"inconclusive: 39.8 µM [inhibitor, single point]",
CCOC(=O)C1CCN(C(c2cccnc2)c2c(NC(=O)c3ccco3)sc(C)c2C)CC1 (stereo unspecified),"inconclusive: 31.6 µM [inhibitor, partial curve, poor fit]",
COc1ccc(OCC(=O)N2CCN(c3nnc(-c4ccc(C)cc4)c4ccccc34)CC2)cc1,"inconclusive: 11.9 µM [inhibitor, partial curve, poor fit]",
COc1ccc(Nc2cc(C(=O)NCCCN(C)C3CCCCC3)c3ccccc3n2)cc1,"inconclusive: 31.6 µM [inhibitor, partial curve]",
COc1ccc(C(N)c2csc(NC(=O)Nc3cccc(C(F)(F)F)c3)n2)cc1 (stereo unspecified),"inconclusive: 28.2 µM [inhibitor, single point]",
CCOc1ccc(-c2cc(CCCC(=O)NCCc3ccc(OC)c(OC)c3OC)no2)cc1,"inconclusive: 14.1 µM [inhibitor, partial curve, poor fit]",
CC(C)(C)S(=O)N1Cc2cc(C(=O)NCc3ccc4c(c3)OCO4)nc(-c3cccc(-c4cc5ccccc5o4)c3)c2[C@@H]1CCO (stereo partly specified),active: 22.4 µM,
COc1cc(C(CCN2CCCC2)c2c(OC)cc(OC)c3c(-c4ccccc4)cc(=O)oc23)cc(OC)c1OC (stereo unspecified),"inconclusive: 28.2 µM [inhibitor, single point]",
COc1ccc(-c2cc(-c3cccs3)c(C#N)c(SCC(=O)NCc3ccco3)n2)cc1,,inactive: -29.6%
O=C(Cc1ccc(-c2ccccc2)cc1)Nc1ccccn1,"inconclusive: 20 µM [inhibitor, partial curve]",

SMILES,Potency,"activity change, negative = inhibition"
COc1ccc(CCCc2nnc(SCC(=O)Nc3ccc(Cl)cc3)o2)cc1,"inconclusive: 7.08 µM [inhibitor, partial curve, poor fit]",
COc1ccc(Nc2cc(C)nc3ccc(OC)cc23)cc1,"inconclusive: 22.4 µM [inhibitor, partial curve, poor fit]",
COC(=O)c1ccc(NC(=O)c2c(NCc3ccc(OC)c(OC)c3)sc3c2CCCC3)cc1,"inconclusive: 39.8 µM [inhibitor, single point]",
O=[N+]([O-])c1ccc(O)c(CSc2nnnn2-c2ccccc2)c1,,inactive: -5.5%
Cc1nn(-c2ccccc2)c(C)c1/C=N/NC(=O)c1cc(-c2ccc(Br)s2)[nH]n1,"inconclusive: 7.94 µM [inhibitor, partial curve, poor fit]",
COc1ccc(S(=O)(=O)Nc2cccc3c2O[C@H](CN(C)Cc2ccc(Oc4ccccc4)cc2)[C@@H](C)CN([C@H](C)CO)C3=O)cc1,"inconclusive: 39.8 µM [inhibitor, single point]",
CC1(C(=O)Nc2ccc3nc[nH]c3c2)CCN1C(=O)Cc1ccc(-c2ccccc2)cc1 (stereo unspecified),"inconclusive: 39.8 µM [inhibitor, partial curve, poor fit]",
CCN(c1cccc(C(F)(F)F)c1)S(=O)(=O)c1ccc2c(c1)CCN2C(C)=O,"inconclusive: 22.4 µM [inhibitor, partial curve, poor fit]",
COC(=O)Cc1ccc(NC(=O)c2ccc(C(C)(C)C)cc2)cc1,active: 0.794 µM,
CCCOc1ccc(C(=O)Nc2ccc(S(=O)(=O)N3CCN(C)CC3)cc2)cc1,"inconclusive: 3.55 µM [inhibitor, partial curve, poor fit]",
CCOC(=S)SCC(=O)Nc1nc(-c2ccc(Br)cc2)cs1,"inconclusive: 39.8 µM [inhibitor, single point]",
Cc1cc(NC(=O)c2ccc(Cl)c(S(=O)(=O)N3CCCCC3)c2)no1,,inactive: -8%
CC(=O)OC/C=C(C)/C=C/C=C(C)/C=C/C1=C(C)CCCC1(C)C,,inactive: 3.67%
O=C(NC(CC(=O)N1CCN(c2ccccc2O)CC1)c1ccccc1)c1ccccc1Cl (stereo unspecified),,inactive: -23.3%
CSc1ncc(C(=O)Nc2cccc(Cl)c2C)c(-c2ccccc2)n1,,inactive: 6.69%
CCOC(=O)c1c(NC(C)=O)sc2c(OCC(O)CN(CC)CC)c(Br)ccc12 (stereo unspecified),"inconclusive: 39.8 µM [inhibitor, single point]",
Cc1ncc(C[n+]2csc(CCOC(=O)C34CC5CC(CC(C5)C3)C4)c2C)c(N)n1,"inconclusive: 28.2 µM [inhibitor, single point]",
CCN(CC(=O)NCc1ccc(Cl)cc1)C(=O)c1ccc2cc(OC)ccc2c1,,inactive: -3.98%
Cc1ccc(S(=O)(=O)N2CCN(C(=O)c3cc(=O)c4ccccc4o3)CC2)cc1,,inactive: -7.55%
COc1ccc(NC(=O)NNC(=O)c2ccc3ccccc3c2)cc1OC,"inconclusive: 35.5 µM [inhibitor, partial curve, poor fit]",
O=c1[nH]c(=O)n(C2C[C@H](O)[C@@H](CO)O2)cc1C(F)(F)F (stereo partly specified),"inconclusive: 2.82 µM [inhibitor, partial curve]",

SMILES,Potency,"activity change, negative = inhibition"
O=S(=O)(c1ccccc1C(F)(F)F)N1CCN(S(=O)(=O)c2ccccc2C(F)(F)F)CC1,,inactive: -6.48%
CN(CC(O)CON=C1c2ccccc2-c2ccccc21)S(=O)(=O)c1ccc(Br)cc1 (stereo unspecified),"inconclusive: 39.8 µM [inhibitor, single point]",
CCOC(=O)c1c2c(n(Cc3ccccc3)c1C)C(=O)C(=O)c1ccccc1-2,active: 18.9 µM,
COc1ccc(-c2cnc3c(NC=O)cc(-c4ccoc4)cn23)cc1OC,"inconclusive: 39.8 µM [inhibitor, partial curve, poor fit]",
C=C1CCC(N(O)c2cc(C)on2)C(=C)CCC2C1CC2(C)C (stereo unspecified),"inconclusive: 39.8 µM [inhibitor, single point]",
c1ccc(-c2sc3ccccc3c2-c2ccc(OCCN3CCCC3)cc2)cc1,active: 25.1 µM,
O=C1NC(Cc2ccc(O)cc2)c2nc3cc(Cl)ccc3c(=O)n2-c2cc(Cl)ccc21 (stereo unspecified),"inconclusive: 35.5 µM [inhibitor, single point]",
CNc1nc2cc([N+](=O)[O-])c([N+](=O)[O-])cc2nc1NC,"inconclusive: 29.9 µM [inhibitor, partial curve, poor fit]",
CCC(C)[C@@H](NC(=O)OC(C)(C)C)c1nnc(S(=O)(=O)Cc2cccc(C)c2)o1 (stereo partly specified),"inconclusive: 35.5 µM [inhibitor, single point]",
Cc1ccc(S(=O)(=O)N2CCC(=O)N(CCOCc3ccc(C(F)(F)F)cc3)CC2)cc1,"inconclusive: 14.1 µM [inhibitor, partial curve, poor fit]",
Cc1nc(-c2coc3cc(OCC(=O)O)ccc3c2=O)cs1,"inconclusive: 12.6 µM [inhibitor, partial curve]",
CC(C)(C)Cc1c(-c2ccc(F)cc2)nc2ccc(Br)cn12,"inconclusive: 39.8 µM [inhibitor, partial curve, poor fit]",
CC(=O)c1ccc(NC(=O)COC(=O)c2c3c(nc4ccccc24)/C(=C\c2cccs2)CCC3)cc1,"inconclusive: 35.5 µM [inhibitor, partial curve, poor fit]",
Cc1ccc(C)c(CN2C(=O)c3ccccc3S(=O)c3ccc(C(=O)N(C)Cc4ccccc4)cc32)c1 (stereo unspecified),"inconclusive: 35.5 µM [inhibitor, single point]",
Cc1ccc(-c2nc3cccnc3o2)cc1NC(=O)COc1ccc(Cl)cc1C,active: 31.6 µM,
Cc1ccc(C)c(N2CCN(C(=O)c3cc4c(=O)n(Cc5cccs5)ccc4nc3C)CC2)c1,"inconclusive: 39.8 µM [inhibitor, single point]",
CN1OC[C@@H]2CN(C(=O)NC3CCCCC3)[C@H](c3ccc(N4CCCCC4)cc3)C[C@@H]21,,inactive: 13.4%
Oc1ccccc1N=Nc1nc(-c2ccccc2)c(-c2ccccc2)[nH]1,"inconclusive: 0.631 µM [inhibitor, full curve]",
CCOc1ccccc1NC(=O)c1cc(S(=O)(=O)NC2CCCC2)ccc1F,"inconclusive: 39.8 µM [inhibitor, single point]",
